In a collection of fitness landscapes (doi:10.1016/j.celrep.2020.107928):
Whole data set: some 81,000 sequences, median “one-hybrid fitness for binding parS DNA” near -0.17, cut for the highest 2% near 0.51. This is one part of the list.

B1: Caulobacter ParB omega fusion; a variant is named by its letters at X, in order, B8GW30 (parent)
chain: MESVVVGEPGMSEGRRGLGRGLSALLGEVDAAPAQAPGEQLGGSREAPIEILQRNPDQPRRTFREEDLEDLSNSIREKGVLQPILVRPSPDTAGEYQIVAGERAWRAAQRAGLKTVPIMVRELDDLAVLEIGIIENVQRADLNVLEEALSYKVLMEKFERTQENIAQTIGKSXSHVANXMRLLXLPDEVQSYLVSGELTAXHARAIAAAADPVALAKQIIEGGLSVRETEALARKAPNLSAGKSKGGRPPRVKDTDTQALESDLSSVLGLDVSIDHRGSTGTLTITYATLEQLDDLCNRLTRGI

Variants of: B1
Experiment: one-hybrid fitness for binding parS DNA (scaled: cognate 1, non-cognate 0); higher = stronger binding
Conditions: with parS DNA site
Outline: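 Fitness here means the log change in variant-to-wild-type read ratio between plasmids sequenced before and after selection. That scale was set so cognate equals 1 and non-cognate equals 0. The selection was a bacterial one-hybrid screen of Caulobacter ParB libraries, four specificity codons randomised, in E. coli USO carrying a HIS3 reporter with the site 19 bp from the promoter, grown 48 hours at 37°C on M9-minus-histidine with 0.1 mM IPTG and 5 mM 3-AT.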

Variant	one-hybrid fitness for binding parS DNA
APDE	≤ 0.2
HSHG	≤ 0.2
TAKE	≤ 0.2
DELG	≤ 0.2
AFDM	≤ 0.2
RRHW	≤ 0.2
ARNH	≤ 0.2
RRER	≤ 0.2
QGGK	≤ 0.2
DYDG	≤ 0.2
QQKG	≤ 0.2
WMMC	0.223
MKYF	≤ 0.2
HTIK	≤ 0.2
CKIS	≤ 0.2
AEAS	≤ 0.2
NYFG	≤ 0.2
TFKD	≤ 0.2
KLDC	≤ 0.2
KSMA	≤ 0.2
LGAT	≤ 0.2
DRDT	≤ 0.2
CARF	≤ 0.2
NPWD	≤ 0.2
GTAT	≤ 0.2
VHKI	≤ 0.2

Variant	one-hybrid fitness for binding parS DNA
TTDQ	≤ 0.2
MNTQ	≤ 0.2
SSKK	≤ 0.2
LKQC	≤ 0.2
WNLV	≤ 0.2
ATCT	≤ 0.2
DRMN	≤ 0.2
AWSI	≤ 0.2
YPNR	≤ 0.2
LSVL	≤ 0.2
QSWE	≤ 0.2
HYGY	≤ 0.2
WTFA	≤ 0.2
DYCC	≤ 0.2
TRAM	≤ 0.2
WRLA	≤ 0.2
HALR	≤ 0.2
ERPG	≤ 0.2
IDKG	≤ 0.2
PAGQ	≤ 0.2
QPQR	≤ 0.2
TFNP	≤ 0.2
ILRI	≤ 0.2
RIGQ	0.204
QPPT	≤ 0.2
SHLP	≤ 0.2

Variant	one-hybrid fitness for binding parS DNA
WAPK	≤ 0.2
NLPK	≤ 0.2
GALV	≤ 0.2
TTPD	≤ 0.2
SQKC	≤ 0.2
NDDI	≤ 0.2
CPTG	≤ 0.2
VKRG	≤ 0.2
VQEC	≤ 0.2
NLPW	≤ 0.2
TCQE	≤ 0.2
HWSM	≤ 0.2
RFHH	≤ 0.2
GETL	≤ 0.2
TMYS	≤ 0.2
QHHS	≤ 0.2
MRFR	≤ 0.2
PEQS	≤ 0.2
KSNV	≤ 0.2
QLWM	≤ 0.2
VEES	≤ 0.2
PLCT	≤ 0.2
WTSL	≤ 0.2
YSQR	≤ 0.2
TMCY	≤ 0.2
CLSN	≤ 0.2

Variant	one-hybrid fitness for binding parS DNA
NSDR	≤ 0.2
LRPQ	≤ 0.2
SPVW	≤ 0.2
QYQR	≤ 0.2
VTKF	≤ 0.2
HTMN	≤ 0.2
IGCT	≤ 0.2
HCFR	≤ 0.2
PHGQ	≤ 0.2
TFTN	≤ 0.2
ISNM	≤ 0.2
VRQF	≤ 0.2
HSNF	≤ 0.2
NIIF	≤ 0.2
GHHW	≤ 0.2
VRKQ	≤ 0.2
SCTP	≤ 0.2
TGTV	≤ 0.2
KRLD	≤ 0.2
AIGS	≤ 0.2
KRCT	≤ 0.2
LKSM	≤ 0.2
EGLS	≤ 0.2
LAHI	≤ 0.2
ACHR	≤ 0.2
YRPG	≤ 0.2

Variant	one-hybrid fitness for binding parS DNA
NPQR	≤ 0.2
HRYQ	≤ 0.2
YQEY	≤ 0.2
KIST	≤ 0.2
LDAI	≤ 0.2
EISS	≤ 0.2
TSEL	≤ 0.2
NPGT	≤ 0.2
VNKG	≤ 0.2
NLLI	≤ 0.2
EKPW	≤ 0.2
QHCN	≤ 0.2
GDAP	≤ 0.2
RHEM	0.214
AHLR	≤ 0.2
RCDL	≤ 0.2
CTNL	≤ 0.2
LRGV	≤ 0.2
HCVT	0.226
DSIR	≤ 0.2
IVKG	≤ 0.2
DEAR	≤ 0.2
FKLC	≤ 0.2
CCDT	≤ 0.2
RDYM	≤ 0.2
ETDC	≤ 0.2

Variant	one-hybrid fitness for binding parS DNA
EIAQ	≤ 0.2
VIQL	≤ 0.2
QNMT	≤ 0.2
RELG	0.217
LTVH	≤ 0.2
DCKG	≤ 0.2
QFVD	≤ 0.2
LDHD	≤ 0.2
QVAM	≤ 0.2
DVWC	≤ 0.2
QYRD	≤ 0.2
LVLA	≤ 0.2
QFAH	≤ 0.2
ITLS	≤ 0.2
YCIT	≤ 0.2
LEPA	≤ 0.2
AHDE	≤ 0.2
ETNV	≤ 0.2
GASN	≤ 0.2
NLLN	≤ 0.2
QVCR	≤ 0.2
RVQL	≤ 0.2
SQTT	≤ 0.2
